Over roughly 4,100 sequences, “relative CpG methylation activity (normalised to average over all NNNCGNNN flanks)” has its median near 0.87; the highest 2% begin near 2.4. This is one part of the list.
molecular target: DNMT3A catalytic domain (mouse) (UniProt O88508); assay: relative CpG methylation activity (normalised to average over all NNNCGNNN flanks) (relative (1 = mean)); higher = more methylation of the central CpG; settings: system: in vitro, murine catalytic domain; CpG state: hemimethylated substrate pool; residues: 608-908
Protocol: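 Deep enzymology: a pool of dsDNA substrates with a central CpG flanked by 10 random nucleotides on each side was methylated by the murine DNMT3A or DNMT3B catalytic domain (0.8 mM SAM, 37 °C, 60 min). Methylation was then read out by hairpin ligation, bisulfite conversion and NGS. Values are the average methylation of each NNNCGNNN context (±3 flanks; the outer flanks are random and averaged over), normalised to the overall mean, so 1 = average activity.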

| Sequence | relative CpG methylation activity |
| --- | --- |
| TCCCGAAG | 0.61 |
| CGTCGAAG | 0.31 |
| TCCCGGCC | 1.53 |
| GAACGGGA | 0.926 |
| GATCGGTA | 0.107 |
| CGTCGCTT | 1.8 |
| GGACGTGG | 0.0641 |
| CGCCGATC | 1.11 |
| TCGCGTGG | 0.5 |
| AGCCGAAC | 1.25 |
| GACCGCAA | 0.849 |
| CAGCGCGT | 0.305 |
| AGGCGAAG | 0.25 |
| GTACGTCA | 2.5 |
| AGTCGTAG | 0.0575 |
| CTGCGAGT | 1.48 |
| ATTCGCGT | 0.75 |
| CAACGCTC | 1.36 |
| CTACGACG | 1.5 |
| GCGCGGGA | 0.556 |
| CGGCGGCC | 0.805 |
| AATCGGCT | 0.417 |
| CGACGGTT | 0.546 |
| TACCGCAT | 0.802 |
| AGTCGTGC | 0.343 |

| Sequence | relative CpG methylation activity |
| --- | --- |
| AGGCGACA | 0.638 |
| ATCCGTGG | 0.315 |
| TTGCGCCC | 2.61 |
| GACCGATT | 0.895 |
| ATGCGCGC | 1.5 |
| TCCCGGTC | 1.11 |
| GCCCGGTT | 1.03 |
| TGCCGTAT | 0.586 |
| GCCCGCTT | 1.72 |
| ATACGGAA | 1.75 |
| GGACGCTA | 1.09 |
| GGTCGACG | 0.122 |
| AGACGGAT | 0.485 |
| GAACGCGA | 0.441 |
| CTGCGCGG | 0.536 |
| AGGCGTTA | 0.256 |
| GCTCGCAT | 1.17 |
| ACACGGTC | 1.41 |
| CGGCGTCG | 0.774 |
| TGTCGTGG | 0.204 |
| CCCCGAAG | 0.825 |
| TGGCGGCA | 0.395 |
| GTTCGGGG | 0.025 |
| TGACGCAT | 0.9 |
| TCGCGTCA | 1.2 |

| Sequence | relative CpG methylation activity |
| --- | --- |
| TAACGAGG | 0.426 |
| TCCCGGAA | 1.15 |
| CCTCGTTT | 0.481 |
| ACTCGTTG | 0.62 |
| GTTCGAAA | 0.915 |
| TCACGATA | 1.06 |
| ACGCGAGA | 0.663 |
| ACTCGGCG | 1.24 |
| CGTCGTTC | 0.509 |
| TACCGGTG | 0.22 |
| CTTCGTTT | 1.1 |
| TCGCGAAC | 0.985 |
| AAACGCCA | 1.15 |
| CATCGATC | 0.837 |
| TTTCGCGG | 0.159 |
| GGGCGGTT | 0.476 |
| GGGCGCTT | 1.67 |
| TCGCGGAT | 0.281 |
| CCGCGGCA | 0.866 |
| TCGCGATC | 1.01 |
| AATCGTAG | 0.171 |
| ACACGCGC | 1.64 |
| TTCCGTTG | 1.18 |
| ATACGTGC | 1.05 |
| GTTCGACC | 0.821 |

| Sequence | relative CpG methylation activity |
| --- | --- |
| AGCCGAAA | 0.828 |
| CCTCGCTC | 2.03 |
| AATCGACT | 0.417 |
| ACTCGAGA | 0.634 |
| TAGCGCAG | 0.248 |
| ACCCGCTA | 1.22 |
| AGACGCGA | 0.543 |
| GAGCGCAG | 0.388 |
| ACACGCCG | 1.92 |
| CACCGACA | 0.997 |
| AAACGATA | 0.538 |
| TTACGGGT | 1.65 |
| TCCCGCTA | 1.67 |
| TTGCGTAA | 1.77 |
| AGCCGGTA | 0.514 |
| CCTCGCGC | 1.11 |
| TGCCGGTC | 0.693 |
| GTACGATA | 1.75 |
| GCGCGTGG | 0.25 |
| CCACGAAC | 1.73 |
| TTACGATC | 2.17 |
| TTACGCCG | 2.29 |
| GGCCGGGA | 0.878 |
| AGACGGCT | 1.08 |
| TGCCGAAG | 0.484 |

| Sequence | relative CpG methylation activity |
| --- | --- |
| GCTCGTAG | 0.494 |
| CTCCGTCT | 1.84 |
| GCTCGCCC | 1.8 |
| CAACGAGA | 0.542 |
| CCGCGGTA | 0.625 |
| CAACGAGG | 0.472 |
| TTACGAAG | 1.32 |
| GTCCGAGC | 2.16 |
| GTTCGCAT | 1.26 |
| CAGCGGGG | 0.352 |
| GGTCGTGT | 0.0893 |
| GTACGAGT | 1.55 |
| AAGCGTGG | 0.153 |
| TGACGTGC | 0.393 |
| ACCCGAAC | 1.68 |
| CCCCGCCT | 2.14 |
| TTACGGAC | 2.21 |
| CCACGGGA | 0.786 |
| CTACGGCC | 1.99 |
| TGTCGGAC | 0.385 |
| GTACGATT | 1.67 |
| CCGCGTCC | 1.29 |
| GAGCGGAG | 0.268 |
| GGCCGCTC | 1.64 |
| GGACGTCA | 1.07 |

| Sequence | relative CpG methylation activity |
| --- | --- |
| CGTCGCTG | 0.963 |
| CGGCGAAG | 0.198 |
| TTTCGTTG | 0.873 |
| TTCCGGCT | 1.83 |
| ATACGTAA | 2.01 |
| TGACGCAG | 0.352 |
| AGCCGTCT | 1.08 |
| CCCCGGCA | 1.45 |
| CTCCGATG | 0.927 |
| GCTCGAAT | 0.774 |
| AACCGGGT | 0.688 |
| TTACGTAC | 2.06 |
| CCCCGCTG | 1.21 |
| GCTCGTGC | 0.519 |
| AACCGGTT | 0.478 |
| TTGCGTAG | 1.15 |
| GAGCGTCT | 1.09 |
| AATCGTTG | 0.24 |
| AGCCGACC | 1.1 |
| ATGCGATG | 0.851 |
| CGCCGCAC | 0.823 |
| CGTCGCCT | 2.06 |
| GTACGGGC | 1.82 |
| TTACGTTC | 2.04 |
| AACCGGTC | 1 |

| Sequence | relative CpG methylation activity |
| --- | --- |
| TAACGTAG | 0.514 |
| CTGCGTTC | 1.5 |
| AGACGATC | 0.959 |
| ATGCGTCC | 1.99 |
| GGGCGTTG | 0.405 |
| GGACGCAA | 0.614 |
| GAGCGATT | 0.528 |
| CTCCGTCG | 1.92 |
| CCCCGGGA | 0.853 |
| CACCGACT | 0.89 |
| CCTCGTCC | 2.31 |
| CCTCGCAG | 0.442 |
| GGACGTGC | 0.431 |
| TACCGAGT | 1.08 |
| CGCCGCTA | 0.842 |
| GGACGGAC | 0.861 |
| TGTCGAAG | 0.216 |
| TTACGTCT | 2.14 |
| GCCCGGAT | 0.551 |
| CCACGACT | 1.02 |
| TCCCGATG | 0.609 |
| CCGCGGGC | 0.748 |

Reference: the supplement of paper PMC7335073
